The CheMixHub viscosity set
Values joined by “and” are separate entries in the source; they are usually repeats but may differ in a detail not shown here. Equal values may be shown once. The source gives many values for each of these; only a part stands here.

Test: xn = mol fraction of the nth substance listed

OCC(O)CO + O
Conditions | viscosity
298.15 K, 101 kPa, x1 = 0.8114 | 408.3 mPa·s
298.15 K, 101 kPa, x1 = 0.8274 | 441.8 mPa·s
298.15 K, 101 kPa, x1 = 0.8428 | 474.8 mPa·s
298.15 K, 101 kPa, x1 = 0.859 | 512.3 mPa·s
298.15 K, 101 kPa, x1 = 0.8905 | 539.1 mPa·s
298.15 K, 101 kPa, x1 = 0.9082 | 636.8 mPa·s
298.15 K, 101 kPa, x1 = 0.9434 | 747.4 mPa·s
298.15 K, 101 kPa, x1 = 0.96 | 757.4 mPa·s
298.15 K, 101 kPa, x2 = 0.0171 | 884 mPa·s
300.65 K, 101 kPa, x1 = 0.1967 | 6.203 mPa·s
300.65 K, 101 kPa, x1 = 0.2067 | 6.776 mPa·s
300.65 K, 101 kPa, x1 = 0.2178 | 7.43 mPa·s
300.65 K, 101 kPa, x1 = 0.225 | 7.918 mPa·s
300.65 K, 101 kPa, x1 = 0.2378 | 8.792 mPa·s
300.65 K, 101 kPa, x1 = 0.2459 | 9.438 mPa·s
300.65 K, 101 kPa, x1 = 0.2622 | 10.79 mPa·s
303.15 K, 101 kPa, x1 = 0.021 | 1.03 mPa·s
303.15 K, 101 kPa, x1 = 0.047 | 1.35 mPa·s
303.15 K, 101 kPa, x1 = 0.077 | 1.87 mPa·s
303.15 K, 101 kPa, x1 = 0.1005 | 2.231 mPa·s
303.15 K, 101 kPa, x1 = 0.12 | 2.72 mPa·s
303.15 K, 101 kPa, x1 = 0.16 | 4.21 mPa·s
303.15 K, 101 kPa, x1 = 0.2026 | 5.528 mPa·s
303.15 K, 101 kPa, x1 = 0.23 | 7.19 mPa·s
303.15 K, 101 kPa, x1 = 0.27 | 9.85 mPa·s
303.15 K, 101 kPa, x1 = 0.28 | 11.3 mPa·s
303.15 K, 101 kPa, x1 = 0.281 | 7.803 mPa·s
303.15 K, 101 kPa, x1 = 0.3085 | 9.698 mPa·s
303.15 K, 101 kPa, x1 = 0.31 | 14.1 mPa·s
303.15 K, 101 kPa, x1 = 0.37 | 21.2 mPa·s
303.15 K, 101 kPa, x1 = 0.399 | 19.28 mPa·s
303.15 K, 101 kPa, x1 = 0.44 | 33.9 mPa·s
303.15 K, 101 kPa, x1 = 0.5002 | 48.48 mPa·s
303.15 K, 101 kPa, x1 = 0.53 | 58 mPa·s
303.15 K, 101 kPa, x1 = 0.6006 | 89.61 mPa·s
303.15 K, 101 kPa, x1 = 0.64 | 109 mPa·s
303.15 K, 101 kPa, x1 = 0.6493 | 119.1 mPa·s
303.15 K, 101 kPa, x1 = 0.66 | 126 mPa·s
303.15 K, 101 kPa, x1 = 0.69 | 147 mPa·s
303.15 K, 101 kPa, x1 = 0.6917 | 145 mPa·s
303.15 K, 101 kPa, x1 = 0.72 | 172 mPa·s
303.15 K, 101 kPa, x1 = 0.7442 | 205.9 mPa·s
303.15 K, 101 kPa, x1 = 0.75 | 202 mPa·s
303.15 K, 101 kPa, x1 = 0.7646 | 222.3 mPa·s
303.15 K, 101 kPa, x1 = 0.79 | 237 mPa·s
303.15 K, 101 kPa, x1 = 0.7947 | 257.2 mPa·s
303.15 K, 101 kPa, x1 = 0.7958 | 245.8 mPa·s
303.15 K, 101 kPa, x1 = 0.8114 | 279.6 mPa·s
303.15 K, 101 kPa, x1 = 0.82 | 281 mPa·s
303.15 K, 101 kPa, x1 = 0.8274 | 300.6 mPa·s
303.15 K, 101 kPa, x1 = 0.8428 | 322.4 mPa·s
303.15 K, 101 kPa, x1 = 0.859 | 346.7 mPa·s
303.15 K, 101 kPa, x1 = 0.86 | 340 mPa·s
303.15 K, 101 kPa, x1 = 0.8905 | 384 mPa·s
303.15 K, 101 kPa, x1 = 0.9082 | 427.2 mPa·s
303.15 K, 101 kPa, x1 = 0.91 | 409 mPa·s
303.15 K, 101 kPa, x1 = 0.9434 | 496.2 mPa·s
303.15 K, 101 kPa, x1 = 0.95 | 500 mPa·s
303.15 K, 101 kPa, x1 = 0.96 | 500.7 mPa·s
303.15 K, 101 kPa, x2 = 0.0171 | 583.3 mPa·s
303.15 K, 101.3 kPa, x1 = 0.002 | 0.807 mPa·s
303.15 K, 101.3 kPa, x1 = 0.004 | 0.817 mPa·s
303.15 K, 101.3 kPa, x1 = 0.005 | 0.833 mPa·s
303.15 K, 101.3 kPa, x1 = 0.007 | 0.864 mPa·s
303.15 K, 101.3 kPa, x1 = 0.009 | 0.874 mPa·s
303.15 K, 101.3 kPa, x1 = 0.01 | 0.894 mPa·s and 0.908 mPa·s and 0.923 mPa·s
303.15 K, 101.3 kPa, x1 = 0.02 | 0.941 mPa·s and 0.957 mPa·s
308.15 K, 101.3 kPa, x1 = 0.002 | 0.731 mPa·s
308.15 K, 101.3 kPa, x1 = 0.004 | 0.741 mPa·s
308.15 K, 101.3 kPa, x1 = 0.005 | 0.763 mPa·s
308.15 K, 101.3 kPa, x1 = 0.007 | 0.789 mPa·s
308.15 K, 101.3 kPa, x1 = 0.009 | 0.792 mPa·s
308.15 K, 101.3 kPa, x1 = 0.01 | 0.799 mPa·s and 0.822 mPa·s and 0.844 mPa·s
308.15 K, 101.3 kPa, x1 = 0.02 | 0.851 mPa·s and 0.861 mPa·s
313.15 K, 101 kPa, x1 = 0.021 | 0.826 mPa·s
313.15 K, 101 kPa, x1 = 0.047 | 1.07 mPa·s
313.15 K, 101 kPa, x1 = 0.077 | 1.46 mPa·s
313.15 K, 101 kPa, x1 = 0.1005 | 1.747 mPa·s
313.15 K, 101 kPa, x1 = 0.12 | 2.07 mPa·s
313.15 K, 101 kPa, x1 = 0.16 | 3.1 mPa·s
313.15 K, 101 kPa, x1 = 0.2026 | 4.038 mPa·s
